# Data taken from PubChem BioAssay AID485344 (National Center for Advancing Translational Sciences (NCATS), 2010).
# “And” between values parts separate entries of the source, which are not always exact repeats. Identical values can stand only once. The whole screen tested about 340,000 compounds, of which about 6,900 (2%) were called active. Rule as the data show it: active = inhibition above about 30%; inactive = below that, where a call was filed. The list shows a part of the results, in another mix than the full data. Where no call is shown, the source filed none.
# Target: D(2) dopamine receptor (Homo sapiens) (UniProt P14416)
# UniProt P14416, sequence (P14416 whole entry, looked up): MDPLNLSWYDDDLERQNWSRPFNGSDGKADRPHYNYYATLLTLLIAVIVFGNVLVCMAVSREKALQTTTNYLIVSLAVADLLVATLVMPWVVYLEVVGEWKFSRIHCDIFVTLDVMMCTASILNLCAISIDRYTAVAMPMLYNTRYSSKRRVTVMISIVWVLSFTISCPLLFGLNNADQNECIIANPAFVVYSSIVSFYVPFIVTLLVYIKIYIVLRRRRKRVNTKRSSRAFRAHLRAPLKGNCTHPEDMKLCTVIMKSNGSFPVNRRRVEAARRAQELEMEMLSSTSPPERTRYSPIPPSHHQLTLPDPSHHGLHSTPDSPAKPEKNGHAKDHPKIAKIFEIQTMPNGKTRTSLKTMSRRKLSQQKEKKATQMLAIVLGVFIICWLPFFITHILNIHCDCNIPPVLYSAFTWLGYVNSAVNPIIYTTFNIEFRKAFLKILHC
# Assay: HTS Assay for Allosteric Antagonists of the Human D2 Dopamine Receptor: Primary Screen for Antagonists; also: 0% is about no effect
# Settings: HEK293 TREx D2 cells, calcium flux, dopamine EC80; at 10 µM; stronger effect = higher value
# Procedure, shortened: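 Dopamine at EC80 is the agonist stimulus; test compounds precede it by 180 s. Calcium flux read kinetically in a force-coupled, inducible HEK293 T-REx D2 cell line.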
row,SMILES,inhibition
1,Cc1cc(OC(C)C(=O)N(Cc2ccc(N(C)C)cc2)Cc2ccco2)ccc1Cl (stereo not given),4.56%
2,Cc1ccccc1C(=O)Nc1cccc(OCc2cc(=O)n3cccc(C)c3n2)c1,-15.1%
3,Cc1ccc(C)c(NC(=O)Cn2cc(S(=O)(=O)Cc3cccc(Cl)c3)c3ccccc32)c1,4.46%
4,CCc1ccc(NC(=O)CN2C(=O)CSc3ccc(S(=O)(=O)N(C)C)cc32)cc1,-6.1%
5,COc1cccc(NC(=O)Cn2cc(S(=O)(=O)Cc3ccccc3F)c3ccccc32)c1,0.145%
6,CCOC(=O)N1CCN(Cc2nc3cc(NC(=O)c4cccc(C)c4)ccc3n2C(C)C)CC1,2.81%
7,Cc1ccc(S(=O)(=O)c2nnn3c2nc(NCc2cccs2)c2sccc23)cc1,14%
8,O=C(c1cnn(-c2ccc(F)cc2)c1-n1cccc1)N1CCN(c2ccc(Cl)cc2)CC1,3.38%
9,COc1ccccc1NC(=O)Cn1c(=O)c(CNc2ccccc2)cc2cc(OC)c(OC)cc21,0.527%
10,Cc1cccc(CNC(=O)c2ccc3c(c2)c(C)c(C)n3Cc2ccccc2)c1,5.12%
11,COc1ccccc1C1C=C(c2ccc(C(C)C)cc2)Nc2nnnn21 (stereo not given),-1.17%
12,CSc1ncc(Cl)c(C(=O)N(Cc2ccc(C)cc2)C2CCS(=O)(=O)C2)n1 (stereo not given),14%
13,Cc1cc(C)cc(OCc2cc(=O)n3c(-c4ccccc4)csc3n2)c1,14.3%
14,Fc1ccc(-n2ncc3c(Nc4cccc(Cl)c4)ncnc32)cc1,26.1%
15,COc1cc(OC)cc(-c2nc3nc(C)c(CCC(=O)Nc4ccc(C)cc4C)c(C)n3n2)c1,-1.6%
16,O=S(=O)(c1ccccc1)c1nnn2c1nc(NCc1ccc(Cl)cc1)c1sccc12,-5.59%
17,CCN(CC)S(=O)(=O)c1ccc(C(=O)Nc2nc3ccc(Cl)cc3s2)cc1,1.88%
18,O=C1CCc2cc(S(=O)(=O)NCc3ccccc3Cl)cc3c2N1CC3,5%
19,O=C1NC(NS(=O)(=O)c2ccccc2)(C(F)(F)F)C(=O)N1c1ccc(F)cc1 (stereo not given),active: 32.9% and 15.6%
20,Cc1cc(N2CCC(C(=O)N(CC(C)C)CC(C)C)CC2)n2nc(C)c(-c3ccc(Cl)cc3)c2n1,-9.56%
21,COc1cccc(NC(=O)c2oc3ccccc3c2NC(=O)C2CCCCC2)c1,20.3%
22,CCc1ccccc1NC(=O)CCCN1C(=O)CCn2nc(-c3cn(C)c4ccccc34)cc21,-26.9%
23,COc1ccc(C(=O)/C=C/c2cn(CC(O)CN3CCc4ccccc43)c3ccccc23)cc1 (stereo not given),-2.26%
24,CCOc1ccc(NC(=O)CSc2oc(-c3ccccc3)nc2S(=O)(=O)c2ccc(Cl)cc2)cc1,-4.32%

row,SMILES,inhibition
1,COC(=O)c1cc(NC(=O)c2cc3sccc3n2Cc2ccc(Cl)cc2)cc(C(=O)OC)c1,7.35%
2,CCOCc1cc(CN2CCN(c3ccccc3OC)CC2)c(O)c2ncccc12,1.82%
3,O=C(Cn1c(=O)n(Cc2nc(-c3ccccc3)no2)c(=O)c2ccccc21)Nc1cccc(Cl)c1,-17%
4,COc1ccc(S(=O)(=O)N2CCN(Cc3nc4ccc(C)cc4o3)CC2)cc1,10.1%
5,COc1ccc(-c2c(C)c3ccc(O)c(CN4CCCC(C)C4)c3oc2=O)cc1OC (stereo not given),14.9%
6,O=C1CCc2cc(S(=O)(=O)NC(C(=O)Nc3cccc(F)c3)c3ccccc3)ccc2N1 (stereo not given),-9.7%
7,COCCCNC(=O)c1ccc2c(c1)N(Cc1ccccc1F)C(=O)c1ccccc1S2=O (stereo not given),-5.44%
8,COc1ccc(-c2nnc(SCC(=O)Nc3ccc(C)c(C)c3)s2)cc1,-3.2%
9,CCOc1ccc(N2C(=O)c3[nH]nc(-c4ccc(OC)cc4)c3C2c2cccs2)cc1 (stereo not given),12.7%
10,Oc1ccccc1Nc1nc2ccccc2n2nnnc12,-0.618%
11,O=C(NCc1ccco1)c1ccc2c(c1)N(Cc1ccc(Cl)cc1)C(=O)c1ccccc1S2(=O)=O,23.8%
12,CCN(CC(=O)Nc1cc(Cl)ccc1C)C(=O)CSCc1c(C)noc1C,active: 32.7%
13,COC(=O)c1nnn(-c2ccc(Br)cc2)c1C(=O)OC,0.354%
14,CN(Cc1ccccc1)c1ccc(-c2nc(-c3ccncc3)no2)cc1[N+](=O)[O-],2.52%
15,CCOC(=O)CC1C(=O)NCCN1c1nc2ccc(C)cn2c(=O)c1/C=C1\SC(=S)N(C(C)CC)C1=O (stereo not given),active: 31.8%
16,CCOC(=O)CC(NC(=O)CCc1c(C)nc2ncnn2c1C)c1ccc(C)cc1 (stereo not given),0.308%
17,O=C(NCCC1=CCCCC1)C1CCN(C(=O)N2CCOc3ccc(Cl)cc32)CC1,-18.6%
18,Cc1cn2c(=O)c(S(=O)(=O)Nc3ccc(F)cc3F)c(C)nc2s1,-8.81%
19,COc1cccc(NC(=O)C2CCCN(S(=O)(=O)c3cccc4nonc34)C2)c1 (stereo not given),-7.86%
20,COc1ccc(C(=O)Nc2ccc3c(c2)CCCN3S(=O)(=O)c2ccc(C)cc2)c(OC)c1,-21.6%
21,CCc1ccc(S(=O)(=O)c2cn(C)c3cc(N4CCCC4)c(F)cc3c2=O)cc1,-8.01%
22,CCOc1ccc(-n2c(SCC(N)=O)nc3c(oc4ccccc43)c2=O)cc1,11%
23,COc1cccc(NC(=O)CSc2nc(-c3ccccc3Cl)nc3c2Cc2c(CO)cnc(C)c2O3)c1,16%
24,CCOC(=O)C1=C(CS(=O)(=O)c2ccc(OC)c(Cl)c2)NC(=O)NC1c1cccc(OC)c1 (stereo not given),8.98%

row,SMILES,inhibition
1,CC(=O)Nc1c(C)nn(-c2ccccc2)c1N1CCC(C(=O)NCc2ccccc2Cl)CC1,-21.3%
2,O=C(CCn1nc(-c2ccc(Cl)cc2)ccc1=O)NCCc1ccccc1,14.6%
3,Cc1ccc(S(=O)Cc2nc(-c3ccc(C(=O)NCc4cccc(C)c4)cc3)oc2C)cc1 (stereo not given),3.03%
4,CCOC(=O)c1c(NC(=O)CSc2cn(CCNC(=O)c3c(F)cccc3F)c3ccccc23)sc2c1CCC2,-13.7%
5,COc1ccc(CCN2C(=O)c3[nH]nc(-c4ccccc4O)c3C2c2ccc(OC)c(OC)c2)cc1 (stereo not given),-0.646%
6,CCOC(=O)c1noc2ncnc(Nc3cccc(OC)c3)c12,-9.27%
7,CCOC(=O)COc1ccc(F)cc1C(=O)c1ccn2nc(-c3ccc(Cl)cc3)cc2n1,-2.35%
8,CCCn1c(=O)c2sccc2n2c(CCCC(=O)NCc3ccccc3)nnc12,4.95%
9,O=C(COc1ccccc1Cl)Nc1ccc2nc(SCC(=O)N3CCCC3)sc2c1,4.34%
10,Cc1ccc(S(=O)(=O)Nc2cc3c(cc2N2CCOCC2)n(C)c(=O)n3C)cc1,1.06%
11,CCC(=O)Oc1ccc(C2Nc3ccccc3-c3nnc(SC)nc3O2)cc1 (stereo not given),0.817%
12,Cc1ccc(NC(=O)N2CCN(c3cc(-c4noc(C)n4)ccc3C)CC2)c(F)c1,25.5%
13,Cc1ccc2nc(-c3cc(NC(=O)COc4ccc(C)c(C)c4)ccc3Cl)oc2c1,-3.56%
14,COC(=O)c1cc(C)nc2c1c(=O)nc(SCc1ccccc1C)n2C1CC1,1.82%
15,COC(=O)C1CCN(S(=O)(=O)c2ccc(N3CCCCS3(=O)=O)cc2)CC1,-8.32%
16,CCc1nn(CCCC(=O)N2CCN(c3cccc(OC)c3)CC2)c(=O)c2cc3occc3n12,5.75%
17,Cc1c(-c2nc(-c3ccc4c(c3)OCO4)no2)nnn1-c1ccc(C(C)C)cc1,6.46%
18,Cc1ccc(C(=O)NCC(c2ccc3c(c2)OCO3)N2CCOCC2)cc1 (stereo not given),25.7%
19,Cc1cccc(NC(=O)C(Cc2ccccc2)NS(=O)(=O)c2ccc3c(c2)c(=O)n(C)c(=O)n3C)c1 (stereo not given),10.1%
20,CC(=O)c1cccc(NS(=O)(=O)c2cc3c(cc2C)N(C(C)=O)CCO3)c1,14.2%
21,Cc1ccc(-c2nc(C(=O)NCc3ccccc3Cl)c3n2CCCCC3)cc1,-14.3%
22,Cc1ccc(NC(=O)N2CCC(CN3CCCC3)CC2)c(C)c1,21.5%
23,COc1cc(C2NC(=O)NC(C)=C2C(=O)OCc2ccc(C)cc2)cc(OC)c1OC (stereo not given),active: 34.5%
24,COc1ccc(CNC(=O)Nc2cn(CC(C)C)c(=O)c3ccccc23)cc1,-7.1%

row,SMILES,inhibition
1,Cc1cc(Cl)ccc1OCC(=O)N1CCC(c2nc3ccccc3s2)CC1,1.91%
2,CC(=O)c1ccc(NC(=O)CN(C)S(=O)(=O)c2cnc[nH]2)cc1,-1.7%
3,O=C(Nc1cccc(-c2nc3ccccc3o2)c1)C(F)(F)F,15.9%
4,Cc1ccc(OCCSc2nc(C)c(Cc3ccccc3)c(=O)[nH]2)cc1,-8.96%
5,Brc1cccc(CN2CCN(c3ncccn3)CC2)c1,active: 84.7%
6,Cc1cc(C)c(NC(=O)CSc2nncn3c2cc2oc(C)cc23)c(C)c1,-9.97%
7,Cc1ccn2c(Nc3ccc(C(C)C)cc3)c(-c3cccnc3)nc2c1,16.3%
8,Cc1cc(-c2ccccc2)n2nc(-c3ccccc3)cc2n1,8.99%
9,Cc1c(C(=O)O)oc2c1-c1nn(Cc3ccc(Cl)cc3)cc1CC2,0.968%
10,CN(C)CCNC(=O)C(=O)NCC(c1ccc2c(c1)OCO2)N1CCOCC1 (stereo not given),-12.2%
11,COc1ccccc1N1CCN(C2CCCN(Cc3ccc(Cl)cc3)C2)CC1 (stereo not given),active: 37.1%
12,Cc1ccc2cccc(NC(=O)C(C)Oc3ccc(Cl)cc3Cl)c2n1 (stereo not given),3.39%
13,CCOc1ccc(C(c2c(O)cc(C)n(Cc3ccco3)c2=O)N2CCCCC2)cc1 (stereo not given),0.215%
14,COc1ccccc1C(=O)Nc1c(C(=O)Nc2ccccc2F)oc2ccccc12,7.24%
15,Cc1ccc(NC(=O)CC2Sc3ccc(C(F)(F)F)cc3NC2=O)cc1 (stereo not given),13.8%
16,COc1cccc(CNS(=O)(=O)c2ccc3c(c2)C(C(C)C)C(=O)N3)c1 (stereo not given),-4.39%
17,COc1ccc(N2CCN(C(c3ccccc3F)c3sc4nc(-c5ccco5)nn4c3O)CC2)cc1 (stereo not given),27.7%
18,CCOC(=O)c1c(NC(=O)COc2cccc(C)c2C)sc(C(C)=O)c1C,-5.97%
19,COc1ccc(NC(=O)CN2C(=O)COc3ccc(S(=O)(=O)N4CCCCC4)cc32)cc1OC,-16%
20,CCCCC(=O)N1CCc2cc(OC)c(OC)cc2C1COc1ccc(OC)cc1 (stereo not given),-1.06%
21,Cc1cc(C)c2c(c1)c(C)cc1nnc(SCC(=O)c3ccc(F)cc3)n12,3.14%
22,COC(=O)c1ccccc1NC(=O)Cn1c(=O)cc(C)c2c(C)nn(C)c21,13.4%
23,Cc1ccc(C)c(Cn2c(C(=O)O)c(CNCc3cccs3)c3ccccc32)c1,22.1%
